The target in test [1] is Flag-tagged p53 (UniProt P04637). The test can be described thus: co-IP; U87 cells transfected with Flag-p53 and HA-TRIM45; lysates immunoprecipitated with anti-Flag beads, immunoblotted with anti-HA; low-salt lysis buffer (50 mM HEPES, 150 mM NaCl, 1% Triton X-100). On the technique in general: Immunoblotting shows a protein as a band on a membrane.
The target of test [2] is HA-p53 (100–393) (UniProt P04637). The test can be described thus: co-IP; 293T cells transfected with Flag-TRIM45 and HA-p53 or HA-tagged p53 deletion mutants, treated with 10 uM MG132; immunoprecipitated with anti-HA beads, immunoblotted with anti-Flag.
For test [3], the target named is HA-p53 (1–300) (UniProt P04637). The test is described as above.
In test [4] the target is endogenous p53 (human (endogenous in U87)) (UniProt P04637). In words: co-IP; U87 cell extracts, endogenous proteins; immunoprecipitated with anti-p53 antibody or IgG, immunoblotted with anti-TRIM45.

These are yes or no findings as the source states them, for the method shown. In cells and extracts the contact can be indirect. Some binding calls cover weakened binding; strength is not graded here. For some of these results: Where a sequence is shown, tags or fusion partners need not be part of it.

B1: HA-tagged TRIM45 (tripartite motif-containing protein 45) (protein, UniProt Q9H8W5 1-580)
chain: MSENRKPLLGFVSKLTSGTALGNSGKTHCPLCLGLFKAPRLLPCLHTVCTTCLEQLEPFSVVDIRGGDSDTSSEGSIFQELKPRSLQSQIGILCPVCDAQVDLPMGGVKALTIDHLAVNDVMLESLRGEGQGLVCDLCNDREVEKRCQTCKANLCHFCCQAHRRQKKTTYHTMVDLKDLKGYSRIGKPILCPVHPAEELRLFCEFCDRPVCQDCVVGEHREHPCDFTSNVIHKHGDSVWELLKGTQPHVEALEEALAQIHIINSALQKRVEAVAADVRTFSEGYIKAIEEHRDKLLKQLEDIRAQKENSLQLQKAQLEQLLADMRTGVEFTEHLLTSGSDLEILITKRVVVERLRKLNKVQYSTRPGVNDKIRFCPQEKAGQCRGYEIYGTINTKEVDPAKCVLQGEDLHRAREKQTASFTLLCKDAAGEIMGRGGDNVQVAVVPKDKKDSPVRTMVQDNKDGTYYISYTPKEPGVYTVWVCIKEQHVQGSPFTVMVRRKHRPHSGVFHCCTFCSSGGQKTARCACGGTMPGGYLGCGHGHKGHPGHPHWSCCGKFNEKSECTWTGGQSAPRSLLRTVAL
Consider B1, for which, in test [1], the binding result is “binds”.

B2: Flag-TRIM45 (in 293T) (protein, UniProt Q9H8W5 1-580)
chain: B1 chain
Regarding B2, the binding result is “binds” in test [2] and “no binding” in test [3].

B3: endogenous TRIM45 (protein, UniProt Q9H8W5 1-580)
chain: B1 chain
As for B3, in test [4], the binding entry is recorded as “binds”.
